# Assay results from PubChem BioAssay AID488969 (Vanderbilt High Throughput Screening Facility, 2010).
# Over roughly 110,000 compounds, “z-score” has its median near -0.1; the highest 2% begin near 2. The list shows a part of the results. The source made the active and inactive calls.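 The calls were made as follows: active = z-score in the third read window above 3 or below -3; inactive = the rest.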
# Molecular target: Metabotropic glutamate receptor 8 (Rattus norvegicus) (UniProt P70579)
# Assay: mGluR8 Gi/Go-coupled signaling modulation – cell-based, rat, thallium flux, HTS, primary screen (AID 488969)
# Settings: HEK293 rat mGluR8, GIRK (G protein-gated inwardly rectifying potassium channel) thallium flux, FluoZin2; at 10 µM; stronger effect = higher value; submaximal glutamate (EC20) added with thallium
# Sequence of UniProt P70579 (P70579 whole entry, looked up): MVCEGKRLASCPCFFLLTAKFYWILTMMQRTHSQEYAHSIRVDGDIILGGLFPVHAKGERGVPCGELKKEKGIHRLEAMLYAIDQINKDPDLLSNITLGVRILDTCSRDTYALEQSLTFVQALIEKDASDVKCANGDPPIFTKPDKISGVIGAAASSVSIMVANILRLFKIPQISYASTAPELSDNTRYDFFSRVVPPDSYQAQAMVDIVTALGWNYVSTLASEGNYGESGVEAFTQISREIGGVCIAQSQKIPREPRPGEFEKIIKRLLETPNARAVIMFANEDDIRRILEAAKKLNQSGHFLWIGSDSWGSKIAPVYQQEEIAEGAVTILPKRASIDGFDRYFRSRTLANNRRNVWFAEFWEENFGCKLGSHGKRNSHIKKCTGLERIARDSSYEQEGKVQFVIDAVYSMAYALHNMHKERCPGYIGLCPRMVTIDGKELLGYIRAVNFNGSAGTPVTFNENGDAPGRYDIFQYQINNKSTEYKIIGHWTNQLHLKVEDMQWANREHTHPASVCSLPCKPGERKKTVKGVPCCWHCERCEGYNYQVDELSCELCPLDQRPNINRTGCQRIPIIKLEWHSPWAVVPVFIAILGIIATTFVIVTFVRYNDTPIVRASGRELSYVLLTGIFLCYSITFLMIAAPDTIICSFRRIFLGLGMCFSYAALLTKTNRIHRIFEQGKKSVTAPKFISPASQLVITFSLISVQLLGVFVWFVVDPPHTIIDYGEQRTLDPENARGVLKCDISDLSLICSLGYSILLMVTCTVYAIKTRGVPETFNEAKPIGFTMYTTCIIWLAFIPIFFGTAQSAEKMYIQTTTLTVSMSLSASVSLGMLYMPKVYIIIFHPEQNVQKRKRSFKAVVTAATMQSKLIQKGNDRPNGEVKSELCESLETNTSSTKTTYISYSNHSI
row,SMILES,z-score
1,CCNC(=O)/C(=C\c1ccccc1)NC(=O)/C=C/c1ccccc1,0.216
2,Cc1cc(S(=O)(=O)n2cnc3cc([N+](=O)[O-])ccc32)ccc1Cl,-0.268
3,CCN(CC)S(=O)(=O)c1ccc(N2CCOCC2)c(NC(=O)c2ccc3ccccc3c2)c1,-0.18
4,Cc1cc(C)c(C#N)c(SCc2cn3c(C)cccc3n2)n1,-0.458
5,CCC1(C)Cc2c(sc3[nH]c(=S)n(Cc4ccccc4)c(=O)c23)CO1 (stereo not given),active: 8.14
6,O=C(Nc1ccc(Nc2ccccc2)cc1)N1CCOCC1,0.011
7,CC(=O)Oc1ccc(NC(=O)Cc2ccccc2)cc1,0.286
8,COc1ccc(OCC(=O)NNC(=O)C2CCCO2)cc1 (stereo not given),-0.116
9,O=C(CSc1nnc(-c2cccs2)n1Cc1ccco1)Nc1ccc2c(c1)OCO2,-0.403
10,O=C(Oc1ccccc1)c1cccc(COC(=O)c2cnccn2)c1,active: -3.31
11,O=C(NC(Cc1ccccc1)C(=O)NCc1ccccn1)c1ccco1 (stereo not given),0.299
12,CC1(C)CN(O)CCN1O,0.0275
13,N#C/C(C(=O)N1CCCCC1)=C1/N=C(N)c2ccccc21,-0.458
14,CCCNC(=O)Cn1c(=O)/c(=C\c2ccc(-c3cccc([N+](=O)[O-])c3)o2)s/c1=C\C(=O)C(C)(C)C,-0.27
15,Cc1ccccc1C(=O)Nc1ccccc1,-0.133
16,COc1ccc(NC(=O)CSc2nccn2-c2ccccc2)cc1,-0.21
17,CCOc1ncccc1C(=O)N(CC)CC(=O)Nc1ccc(NC(C)=O)cc1,-0.339
18,O=C1CSC(c2c(F)cccc2Cl)N1c1cccc(F)c1 (stereo not given),-0.355
19,Cc1ccc(-n2nnnc2SCC(=O)Nc2ccc3c(c2)COC3=O)cc1C,0.959
20,COC(=O)c1[nH]c2ccc(C)cc2c1NC(=O)CN1CCN(c2ccccc2)CC1,-0.322
21,CCOC(=O)c1c(-c2ccc(C)o2)csc1NC(=S)NC(=O)c1cccs1,active: 3.05
22,O=C(N/N=C/c1cccs1)c1cc(-c2ccncc2)nc2ccccc12,-0.317

row,SMILES,z-score
1,CCOc1ccc2c(c1)-c1c(ssc1=S)C(C)(C)N2C,-0.11
2,Cc1cc(NC(=O)CN2CCN(C/C=C/c3ccccc3)CC2)c([N+](=O)[O-])cc1C,-0.0608
3,O=C(O)c1ccc(-c2ccc(Cl)cc2Cl)o1,-0.251
4,CC(=O)Nc1ccc(S(=O)(=O)NCc2csc(-c3cccnc3)n2)cc1,0.282
5,O=C(Nc1nnc(-c2ccc(Cl)cc2)o1)Nc1ccccc1Cl,1.85
6,CNC(=O)c1sc(-c2ccc(Cl)cc2)nc1C,-0.0179
7,Cc1ccc(NC2=NCC(=O)N2c2ccc3c(c2)OCCO3)c(C)c1,0.0348
8,O=C(CCC(=O)Nc1ccccc1)NNC(=O)c1cccs1,-0.138
9,CCn1c(SCC(=O)N2CCN(c3ccccc3)CC2)nnc1-c1ccncc1,0.0506
10,COc1ccc(Nc2ncnc3scc(-c4ccc(OC)cc4)c23)cc1,-0.391
11,CCC1=Nc2ccccc2-c2nnc(SC)nc2O1,-0.667
12,FC(F)(F)c1cccc(CON=C2CCN(c3ncc(C(F)(F)F)cc3Cl)CC2)c1,-0.0477
13,COc1ccc(C(=O)NC(=O)Nc2ncccc2C)cc1,-0.148
14,Cc1ccc(NC(=O)CNC(=O)c2ccccc2F)cc1Cl,-0.0793
15,c1ccc(-n2nnnc2-c2cnc(-c3cccnc3)nc2-c2cccs2)cc1,-1.53
16,CN(C)c1ccc(NC(=O)CN2CCC(N3CCCCC3)CC2)cc1,-0.0883
17,CCCOc1ccc(N2C(=O)CC(SC(=NCC)Nc3cccc(F)c3)C2=O)cc1 (stereo not given),0.042
18,CC(Sc1nc(N2CCOCC2)c2c(c1C#N)CC(C)(C)OC2)C(=O)Nc1ccccc1 (stereo not given),-0.506
19,CC1=C(C(=O)OC(C)C)C(c2ccsc2)NC(=O)N1C (stereo not given),-0.181
20,CCOc1ccc(N=c2cc(-c3ccc(OC)cc3)oc3ccccc23)cc1,-0.124
21,CN1CCc2c(C#N)c(N3CCCCC3)nc(N3CCOCC3)c2C1,0.551
22,O=C(Nc1ccc(-c2nc3ccccc3s2)c(O)c1)C1=COCCO1,-0.294

row,SMILES,z-score
1,CCOC(=O)C(NC(=O)NCc1ccccc1)(OCC)C(F)(F)F (stereo not given),0.191
2,COC(=O)C1C2C=CC3(CN(Cc4cccs4)C(=O)C13)O2 (stereo not given),-0.516
3,CCCCCC(=O)Nc1c(-c2cccs2)c(=O)c2ccccc2n1C,0.588
4,Cc1ccc(S(=O)(=O)Oc2cccc(/C=N/n3cnnc3)c2)cc1,-0.158
5,CCN(CC)S(=O)(=O)c1cccc(NC(=O)C(=O)c2c(-c3ccccc3)cc3ccccn23)c1,-0.947
6,CCOc1ccc(NC(=S)Nc2ccc3nsnc3c2)cc1,0.109
7,Cc1nc2ccc(NC(=O)c3ccc(F)c(S(=O)(=O)N4CCOCC4)c3)cc2s1,0.182
8,Cn1c(=O)n(CC(=O)Nc2ccc(F)cc2)c2ccccc21,-0.0749
9,Cc1cc(O)c2c(-c3ccccc3)cc(=O)oc2c1,2.16
10,O=C(CSc1nnc(COc2ccc3c(c2)CCCC3)o1)Nc1ccc(F)cc1,1.96
11,CN(C)C=NC(=O)c1ccc([N+](=O)[O-])c(CS(=O)(=O)c2ccc(Cl)cc2)c1,-0.0395
12,COC(=O)c1ccccc1NC(=S)NC(=O)COc1ccc(C)cc1,2.28
13,C=CCN(c1ccc(C(=O)Nc2ccc(C)c(C)c2)cc1)S(C)(=O)=O,-0.412
14,COc1cccc(C(=O)Nc2cccc(NC(C)=O)c2)c1,-1.49
15,Cc1ccc(C)c(S(=O)(=O)N2C(=S)NC(=O)C2C(C)C)c1 (stereo not given),0.0469
16,COC(=O)c1ccc(N2CCC(C)CC2)c(N)c1,-0.0527
17,Cc1ccc(-n2cc(C(=O)c3ccc(F)cc3)nn2)cc1Cl,0.781
18,Nc1ccc(-c2nc3ccc(C(=O)O)cc3s2)cc1,-0.0804
19,Cc1[nH]c(=O)[nH]c(=O)c1NC(=O)CSc1ncccc1-c1nc2ccccc2[nH]1,-0.0429
20,COc1cccc(C(=O)Nc2c(C)n[nH]c2C)c1,0.713
21,CC1CCc2c(sc(NC(=O)c3ccc(Cn4cc([N+](=O)[O-])cn4)o3)c2C#N)C1 (stereo not given),0.0147
22,CC1(C)SC(=S)N(NC(=O)Nc2ccccc2)C1N(O)C(=O)Nc1ccccc1 (stereo not given),0.626

row,SMILES,z-score
1,N#Cc1ccccc1OCC(=O)Nc1c(C(=O)C2CC2)oc2ccccc12,-0.314
2,Cc1ccc(NC(=O)C(OC(=O)c2ccc(F)cc2)c2ccccc2)cc1Cl (stereo not given),-0.0515
3,COc1ccc([N+](=O)[O-])cc1COc1ccc2c(-c3ccccc3)cc(=O)oc2c1,-0.166
4,N/C(=N\c1nc2ccccc2o1)NC(=O)c1ccc(F)cc1,0.186
5,Cc1ccccc1-c1nnn(CC(=O)NCc2ccc3c(c2)OCO3)n1,1.38
6,COCCn1c(=NC(=O)/C=C/c2ccccc2Cl)sc2cc(NC(C)=O)ccc21,0.151
7,CN(Cc1ccco1)C(=O)Cn1c(=O)oc2cc(S(=O)(=O)NCc3ccccc3)ccc21,-0.17
8,O=C(CSc1ncnc2ccccc12)NCCCO,0.434
9,O=C1C2C3C=CC(C2C(=O)N1C1CCCCC1)C1C2C(=O)N(C4CCCCC4)C(=O)C2C31 (stereo not given),-0.242
10,COc1ccc(S(=O)(=O)NCC(c2cccnc2)N2CCN(c3ccccc3OC)CC2)cc1C (stereo not given),-0.264
11,O=[N+]([O-])c1cccc(Cl)c1N1CCOCC1,-0.119
12,O=C(Nc1ccc2c(c1)OCCO2)c1cc(-c2ccccc2)nc2ccccc12,-0.364
13,CCO/C=C/C(O)(CNC(=O)COc1ccccc1F)C(F)(F)F (stereo not given),0.157
14,O=C(Nc1nnc(Cc2ccccc2)s1)c1cccs1,-0.126
15,COc1ccc(S(=O)(=O)Nc2ccccc2C(=O)Nc2nc(-c3ccc(F)cc3)cs2)cc1OC,-1.09
16,O=C(Nc1ccc(Oc2ccccc2)cc1)C1CCCO1 (stereo not given),1.65
17,Cc1cc(C)n(C(=O)CNC(=O)Cc2ccccc2)n1,-0.101
18,CCc1nnc(NC(=O)CSc2nc3cc4c(cc3cc2C)OCCO4)s1,-0.118
19,CCOc1cccc(OCCOc2ccc(C(=O)c3ccccc3)cc2)c1,0.25
20,O=C(Cc1ccc(F)cc1)Nc1ccc(F)c([N+](=O)[O-])c1,0.318
21,COC(=O)c1nnn(-c2nonc2N)c1CSc1nc2ccccc2o1,-0.0333
22,CCOC(=O)c1sc(C)c(C(=O)NC2CCCCC2)c1N,active: 3.33

row,SMILES,z-score
1,COc1ccc([N+](=O)[O-])cc1NC(=O)c1cn(-c2ccc(Cl)cc2)c(=O)c2ccccc12,-0.39
2,Oc1ccc2ccccc2c1CN1CCN(c2ccccc2F)CC1,0.0406
3,COC(=O)c1sccc1NC(=O)c1cc(OC)cc(OC)c1,-0.12
4,COc1cccc(/C(O)=C2/C(=O)C(=O)N(CCCN3CCOCC3)C2c2ccncc2)c1 (stereo not given),-0.281
5,O=C(OCC(=O)N(C1CCCCC1)C1CCCCC1)c1ccco1,-0.337
6,O=C(NCc1cccnc1)c1cc2ccccc2oc1=O,-0.0878
7,Cn1c(=O)c2c(O)cc(=O)[nH]c2n(-c2ccccc2)c1=O,-0.00781
8,Cc1ccc(OCCN2C(=O)c3ccccc3C2=O)cc1,0.0165
9,COc1cccc(NC(=O)C2C3CC4OC(=O)C2C4C3)c1 (stereo not given),0.525
10,Cc1ccc(CC(=O)Nc2nc3ccccc3[nH]2)cc1C,0.207
11,Cc1ccc(S(=O)(=O)N2CCOCC2)cc1C(=O)OCC(=O)N1c2ccccc2NC(=O)C1(C)C,0.0833
12,CCC1CCCCN1C(=O)CSc1nc(N)c(NC(=O)c2ccc(OC)c(OC)c2)c(=O)[nH]1 (stereo not given),0.193
13,COc1ccc(NC(=O)CC2Oc3ccc(C)cc3NC2=O)cc1 (stereo not given),-0.732
14,CCc1ccc(N2CC(C(=O)NC3=NCCS3)CC2=O)cc1 (stereo not given),-0.0561
15,CCC(C)NC(=O)CSc1nc2ccsc2c(=O)n1-c1ccc(OC)cc1 (stereo not given),-0.11
16,CCOC(=O)Cn1nnc(-c2ccc(OCC(C)C)cc2)n1,-0.396
17,CCOc1ccc(C(=O)N(CN2CCCC2=O)c2ccc(C)cc2)cc1,-0.477
18,CCCNC(=O)NC(=O)COc1ccc2oc3ccccc3c2c1,0.316
19,CC1(C)CC(=O)C=C(NC2CCCCCC2)C1,1.16
20,CCN(CC)C(=O)C1=C(C)NC(=S)NC1c1cn(-c2ccccc2)nc1-c1ccc(Cl)cc1 (stereo not given),-0.197
21,Cc1ccc(O)c(CNn2cnnc2)c1,0.684
22,O=C(c1ccccc1)c1cccn1CC(=O)N1CCN(c2ccc(F)cc2)CC1,-0.25
